Results published in patent US9399028B2, “Treatment of drug resistant cancer” (ROCKEFELLER UNIVERSITY (THE), priority 2012, dated 2016).

Legend:
[1] = tested on: human melanoma cells (MeWo, MeWo-LM2, HT-144, SK-Mel-2, SK-Mel-334.2); assay: Trans-well matrigel cell invasion assay, melanoma cells; assay type: cell-based; details: 1 μM for 72 hours, compared with lower potency LXR agonists
Procedure: Cancer cells were serum-starved in 0.2% FBS DMEM-based media for 12 hours. Trans-well invasion chambers (354480, BD Biosciences, Bedford, Mass.) were pre-equilibrated prior to beginning the assay by adding 0.5 mL of starvation media to the top and bottom chambers. After 30 minutes, the media in the top chamber was removed, and 0.5 mL of media containing 1×10^5 cancer cells was added into each matrigel-coated trans-well insert and incubated at 37° C. for 24 hours. […] The basal side of each insert was imaged using an inverted fluorescence microscope (Zeiss Axiovert 40 CFL) at 5× magnification, taking three representative images for each insert. The number of invaded cells was quantified using ImageJ (NIH). […]
The cells were then serum starved for 16 hours in 0.2% FBS media in the presence of each corresponding drug or DMSO. […] Meanwhile, cancer cells were trypsinized and viable cells were counted using trypan blue. […] The basal side of each insert was imaged using an inverted fluorescence microscope (Zeiss Axiovert 40 CFL) at 5× magnification, and the number of DAPI-positive cells was quantified using ImageJ.

[2] = tested on: B16F10 mouse melanoma cells; assay: Subcutaneous B16F10 tumor growth in C57BL/6 mice; assay type: in vivo; details: orally in chow after tumors reached 5-10 mm3

In the case of CC(C)(O)c1cn(-c2ccc(-c3cc(F)c(CO)c(S(C)(=O)=O)c3)cc2F)c(C(C)(C)c2c(Cl)cccc2Cl)n1 [Compound 12], the “inhibition of cancer progression phenotypes (cell invasion, endothelial recruitment)” value [1] is reported as “more effective” and the “melanoma primary tumor growth in vivo” value [2] is reported as “significantly inhibited”.
